{"source": "patent US20220096510A1", "about": "“METHOD AND PHARMACOLOGICAL COMPOSITION FOR THE PREVENTION OF RECURRENT INFECTIONS CAUSED BY CLOSTRIDIUM DIFFICILE” (UNIVERSIDAD ANDRÉS BELLO, priority 2018, published 2022)", "key": {"[1]": {"test_system": "C. difficile spores in Caco-2 cells", "assay_type": "cell-based, C. difficile strain R20291", "details": "for spore internalization in vitro: Caco-2 and T84 cells, data not shown"}, "C. difficile spores": {"test_system": "C. difficile spores", "assay_type": "in vivo, C57BL/6 mice"}, "[2]": {"test_system": "C. difficile spores in T84 cells", "assay_type": "cell-based, C. difficile strain R20291", "details": "nystatin 30 μM"}}, "note": "Where two headings read alike, the source gives them in different places."}
{"smiles": "CN(C)CCCN1c2ccccc2Sc2ccc(Cl)cc21", "note": "[chlorpromazine]", "values": [{"measurement": "spore internalization in vitro", "setting": "[1]", "result": "capable of reducing spore internalization"}]}
{"smiles": "C[C@@H]1[C@H](O)[C@@H](C)/C=C/C=C/CC/C=C/C=C/C=C/C=C/C(O[C@H]2O[C@H](C)[C@@H](O)[C@H](N)[C@@H]2O)CC2O[C@](O)(CC(O)C(O)CCC(O)CC(O)CC(O)CC(=O)O[C@H]1C)CC(O)C2C(=O)O", "note": "(stereo partly drawn) [nystatin]", "values": [{"measurement": "histological damage in cecum samples during R-CDI (cellular infiltration, edema, epithelial damage)", "setting": "C. difficile spores; mouse, in vivo", "result": "does not reduce histological damage"}, {"measurement": "histological damage in colon samples during R-CDI (cellular infiltration, edema, epithelial damage)", "setting": "C. difficile spores; mouse, in vivo", "result": "does not reduce histological damage"}, {"measurement": "mice presenting diarrhea", "setting": "C. difficile spores; mouse, in vivo", "result": 50, "unit": "%"}, {"measurement": "CFU in stools", "setting": "C. difficile spores; mouse, in vivo, po", "result": "elevated values"}, {"measurement": "increase in spore adherence", "setting": "[2]", "result": 46, "unit": "%"}, {"measurement": "reduction of spore entry in respect of the control", "setting": "[2]", "result": 60, "unit": "%"}, {"measurement": "spore internalization in vitro", "setting": "[1]", "result": "capable of reducing spore internalization"}, {"measurement": "adherence of spores", "setting": "[1]; Caco-2 cells, nystatin 6-30 μM", "result": "not affected"}, {"measurement": "reduction of spore entry in respect of the control", "setting": "[1]; Caco-2 cells, nystatin 6-30 μM, 1 h preincubation, 3 h infection MOI 10, dependent on inhibitor concentration", "result": "up to 79%"}]}
{"smiles": "CN[C@H](CC(C)C)C(=O)N[C@H]1C(=O)N[C@@H](CC(N)=O)C(=O)N[C@H]2C(=O)N[C@H]3C(=O)N[C@H](C(=O)N[C@H](C(=O)O)c4cc(O)cc(O)c4-c4cc3ccc4O)[C@H](O)c3ccc(c(Cl)c3)Oc3cc2cc(c3O[C@@H]2O[C@H](CO)[C@@H](O)[C@H](O)[C@H]2O[C@H]2C[C@](C)(N)[C@H](O)[C@H](C)O2)Oc2ccc(cc2Cl)[C@H]1O", "note": "[vancomycin]", "values": [{"measurement": "mice presenting diarrhea", "setting": "C. difficile spores; day 12, vancomycin 50 mg/kg, nystatin 8,500 IU/kg oral", "result": 80, "unit": "%"}]}
{"smiles": "COc1ccc2c(c1)c(CC(=O)O)c(C)n2C(=O)c1ccc(Cl)cc1", "note": "[indomethacin]", "values": [{"measurement": "spore internalization in vitro", "setting": "[1]", "result": "capable of reducing spore internalization"}]}
